# From ChEMBL document CHEMBL4888484, “Replenishing the malaria drug discovery pipeline: Screening and hit evaluation of the MMV Hit Generation Library 1 (HGL1) against asexual blood stage Plasmodium falciparum ,using a nano luciferase reporter read-out” (2022)
# In all, about 150,000 compounds went through this assay and about 540 (0.36%) showed an effect of 50% or more. Some of the results follow.
# Tested on: Plasmodium falciparum
# Assay: Primary screen in NF54 nanoGlo assay, in single point, at 2uM, 72h; a lower Z score goes with more inhibition
# Assay type: functional, Erythrocyte
# Conditions: timepoint 72 hour
SMILES,% Inhibition [%],Z score
Cc1nc2c([nH]1)CC[C@H](C(=O)NCc1cccnc1N1CCCC1)C2,-10,1.69
CC(C(=O)N1CCCC1c1ccc[nH]1)N1CCCCCC1 (centres undefined),8,-1.15
O=C(NCCC(=O)N1CCOCC1)c1ccc2c3c(cccc13)CC2,-3,0.64
O=C(O)[C@H]1CN(C(=O)c2scc3c2CCCC3)C[C@@H]1c1cccnc1,3,-0.47
Cc1oc(-c2cccc(C(F)(F)F)c2)nc1CC(=O)N1CCc2ccccc2[C@@H]1c1ccc(F)cc1,-6,0.99
CN(C[C@@H]1OCCc2ccccc21)C(=O)c1nc[nH]c1C(F)(F)F,2,-0.33
CC(C)(C)OC(=O)N1CCC2(CC1)CCN2C[C@H](O)C(F)(F)F,-11,1.16
O=C1CN(C(=O)Nc2ccc(CC(F)(F)F)cc2)C2(CCCCC2)C(=O)N1,-26,3.1
O=C(Cn1cnc(-c2ccccc2)c1)NC[C@@H]1CCCN2CCCC[C@H]12,-12,1.76
CS(=O)(=O)C1(C(=O)N2CCc3c(ccc(Cl)c3Cl)C2)CCCC1,-9,1.05
CCN(C)c1nc(-c2ccccc2)nc2c1CN(C(=O)Nc1ccc(F)c(Cl)c1)CC2,-1,0.16
O=C(COC[C@H]1CCCO1)N(c1nc2ccccc2o1)C1CC1,-4,0.81
CC(C)c1ccc(-c2ccc(N(C)C)nc2)nn1,-22,2.91
Cc1ccc(S(=O)(=O)/N=C(/CNCc2ccccc2)N2CCN(S(=O)(=O)c3ccc(C)cc3)[C@H]2C(C)C)cc1,-6,0.91
O=C(CCc1ccccc1)n1cnc2ccccc21,-4,0.52
CCc1ccc([C@@H]2CCCCN2C(=O)c2c[nH]c(=O)cc2OC)o1,-4,0.62
CC[C@H](NC(=O)N(Cc1cocn1)Cc1cocn1)c1ccc(C)cc1C,0,-0.06
Cn1cnnc1CCN[C@@H](Cc1ccccc1)C1CCCCC1,0,-0.06
Cc1ccc(NC(=O)Cn2cc(C(=O)N3CCC(C)CC3)c(=O)c3ccc(C)nc32)cc1,-15,1.91
Cc1ccc(F)cc1C=Cc1ccnnc1,-5,1.04
Cn1c(=O)n(CC(=O)N(C2CCCC2)[C@H]2CCS(=O)(=O)C2)c2ccccc21,-10,1.6

SMILES,% Inhibition [%],Z score
O=C(Cc1ccsc1)N1CC[C@H](CCOc2ccccc2)C1,2,-0.33
COCCC[C@H]1CCCCN1Cc1cnc(C)nc1,-9,1.32
O=c1cc2cccc(Br)c2c[nH]1,-2,0.29
Cc1cc(C)n(C(=O)c2ccc(Cl)c(S(=O)(=O)N3CCCCCC3)c2)n1,-5,0.81
C[C@H](NC(=O)N1CCC2(CC1)C(=O)N(C)C(=O)N2C)c1nc(C2CC2)no1,-12,1.68
CCOC(C)c1nc(CN(C)C(C)c2ccncc2)cs1 (centres undefined),-13,1.7
Cc1nc(C(=O)NCCc2ccc(F)cc2)c(C)n1C1CCN(C)CC1,-6,1.12
Cc1ccc(C2=C[C@@H](c3ccccc3Cl)n3nc(NC(=O)CCc4ccccc4)nc3N2)cc1,2,-0.27
CCc1onc(C)c1[C@@H]1CCCN1S(=O)(=O)c1ccc(OC)cc1,0,0.08
COc1c(C)cc(-c2ccc3nc(-c4ccc5c(c4)OCO5)oc3c2)cc1C,6,-0.72
CN1CCn2ccnc2C12CCN(S(=O)(=O)c1ccccc1)CC2,-7,0.92
CC[C@H](C)N(CC(=O)N(Cc1cccn1Cc1ccccc1Cl)C1CCCCC1)C(=O)Nc1cccc(F)c1,2,-0.39
O=C(Nc1nc2c(Cl)cccc2n1CC(F)(F)F)[C@H]1CCOC1,7,-1.24
CN(C)c1ccc([C@@H](CNC(=O)c2cccc(F)c2)c2c[nH]c3ccccc23)cc1,2,-0.26
FC(F)(F)Cn1ncnc1CCc1ccncc1,2,-0.26
O=C(CN1C(=O)CCC1=O)N1CCN(S(=O)(=O)c2ccc(Br)cc2)CC1,-14,1.24
O=C(Nc1ccnn1C1CCN(C2CCC2)CC1)c1ccc2c(c1)OCO2,-21,1.88
O=C(O)C1(Oc2cccc(F)c2)CCN(Cc2c[nH]cn2)CC1,-4,0.77
NC(=O)N1CC[C@H](NC(=O)Cc2cccc(Cl)c2Cl)C1,5,-0.42
Clc1cnc(-c2cccc3cnccc23)nc1,-20,1.96
O=c1[nH]c(-c2nccs2)nc2cc(Cl)c(Cl)cc12,-18,1.57

SMILES,% Inhibition [%],Z score
C[C@]1(F)CCCN(CCN2CCCC2=O)C1,-8,1.21
CCN(CCN1C[C@@H]2CC[C@H]1C2)Cc1noc(C2CCC2)n1,-3,0.59
O=C(Nc1nc(-c2ccccc2)cs1)[C@@H]1CCCO1,2,-0.16
CC1(c2noc(-c3ccccc3)n2)CCN(C(=O)CCC(=O)n2ncc3c(Cl)cccc32)CC1,-11,1.46
O=C1CCC2(CCNCC2)CN1CCOCc1ccc(Cl)cc1,-14,1.64
Cc1cccc(-c2noc(N3CCOCC3)c2CN(C(=O)CC(C)C)C2CC2)c1,-12,1.29
COCC(=O)N[C@H]1C[C@@H](C(=O)NCc2ccccc2F)N(C)C1,-8,1.63
CN(Cc1ccccn1)Cc1cncs1,-9,1.02
COc1ccc(-n2cccn2)cc1S(=O)(=O)N1C[C@@H]2CC[C@H]1CN(C)C2,-22,2.24
CCCCOCC(=O)N1CCN(c2ncccn2)[C@H]2CS(=O)(=O)C[C@H]21,-6,1.08
CCc1nnc(-n2nc(C)cc2-c2ccccc2)n1N,3,-0.48
Cn1ccc(CC(=O)N(CC(=O)Nc2ccc(F)cc2)C(C)(C)C)n1,28,-3.74
O=C(Cc1cccc(C(F)(F)F)n1)Nc1cc([C@@H]2CCCO2)n[nH]1,0,-0.02
Cc1ccc(S(=O)(=O)N2CC(=O)N(CCC3=CCCCC3)[C@](C)(C(=O)NCCC(C)C)C2)cc1,-8,0.94
Cc1nc(Cn2ccnn2)n(CC2CCCCC2)n1,-1,0.19
CC1(C)CCN(C(=O)NCCc2cscn2)CC(C)(C)C1,-11,1.68
Cc1cccn2cc(CN3CCCC[C@@H]3Cn3cncn3)nc12,-16,1.62
Fc1ccc(-c2nnc(Cc3nc(-c4ccc(Cl)cc4)no3)o2)cc1,4,-0.73
CC(C)c1cc(N2CC[C@H](c3ccccc3C(=O)O)C2)nc(C(F)(F)F)n1,-7,0.91
Cc1ncc(C(=O)N2CC(C)(C)Oc3cc(Br)ccc32)s1,0,0.01
Cc1noc(-c2c(C)[nH]c(C)c2S(=O)(=O)Nc2ccc(C(C)C)cc2)n1,-9,1.78

SMILES,% Inhibition [%],Z score
Cc1nc(N)nc(N2CCC(NCc3cn4ccccc4n3)CC2)c1Cl,-6,1.32
O=C(N(Cc1ccccc1)Cc1ccccc1)C(F)(F)OC(F)(F)C(F)(F)OC(F)(F)C(F)(F)OC(F)(F)C(F)(F)OC(F)(F)F,4,-0.46
CCOC(=O)c1nc2c(s1)N(Cc1conc1C)CCCC2,-3,0.3
CC(C)(C)c1ccc(-c2noc3nc(Cc4ccccc4)nc(N4CCCN(C(=O)Nc5cccc(F)c5)CC4)c23)cc1,6,-0.68
Cc1cc(C(=O)N2CCCCC2)c2c(=O)n(Cc3cccc(C#N)c3)c(=O)n(-c3ccccc3)c2n1,2,-0.26
CCOCc1nnc(NCc2cccn2C)o1,-8,1.49
Cc1c([C@H](C)NCc2cncnc2)oc2ccccc12,-15,1.68
N#Cc1cc(Br)ccc1N1CC(c2nc(C3CCC3)no2)C1,-12,1.56
CCOC(=O)N(C)CC(=O)Nc1cccc(F)c1,-1,0.08
Cn1nccc1NC(=O)Cn1ccc(-c2c(F)cccc2F)n1,-5,0.62
O=S(=O)(Nc1ccc(-c2ccc[nH]2)cc1)c1ccccc1F,-13,1.8
O=C(c1ccc(-n2cnnn2)cc1)N1CC2(CCC2)c2c(F)cccc21,7,-0.68
CNC(=O)[C@@H]1CN(C(=O)c2cc(C)n(Cc3ccco3)c2C)C[C@H]1CO,-11,1.66
N#Cc1ccc(N2CCC(OCCOc3ccccc3)CC2)cn1,-7,0.59
CCS(=O)(=O)C1CN(C(=O)c2cccn2C2CCCC2)C1,-4,0.63
Cc1cc(N(C)CCCN2CCOCC2)ccn1,8,-1.12
N#Cc1cc(F)c(N2CCC(NC(=O)c3ccoc3)CC2)c(F)c1,-5,0.64
COC1(C(=O)Nc2ccc(Oc3ccc(CO)cc3)cc2)CCC(F)(F)CC1,-9,1.11
O=C1C(NC2CCCn3ccnc32)CCCN1c1ccc(Cl)cc1Cl (centres undefined),-7,1.16
